From PubChem BioAssay AID1963576 (National Center for Advancing Translational Sciences (NCATS), 2024)
The whole screen tested about 46,000 compounds, of which about 60 (0.1%) were called active. The shares of active, inactive and inconclusive entries below differ from those in the screen. Calls come from the whole dose curve; as a rule, active = well fitted inhibition curve with a large enough effect; inconclusive = small, poorly fitted or top-dose-only effect; inactive = no such curve, though single readings can be large or run the other way. Potencies of inconclusive entries are left out as doubtful fits.
Potency is the fitted concentration of half-maximal effect; tags give direction and shape of the fitted curve.

Test: Primary qHTS assay for Inhibitors of ovarian cancer metastasis using an organotypic tumor microenvironment (TME) model.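 For Potency: count of GFP cancer cells still attached after washing and fixation.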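 For activity change, negative = inhibition: plate controls were DMSO wells for no effect and tomatine positive control wells for full effect.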 Note: nearly all actives have a fitted effect of over 65% in size.
Details: SKOV3ip1-GFP adhesion/invasion on 3D omental model, fluorescence; activity change, negative = inhibition: at 45.8 µM (top of the series); series mostly up to 45.8 µM
Outline: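 A 3D layer of primary human omental fibroblasts, mesothelial cells, fibronectin and collagen I, grown 48 hr, received SKOV3ip1-GFP cells in serum-free medium plus compounds at 0.36-46 umol/L. After 2 hr RT and 16 hr 37 C, fixed adherent GFP cells were counted; normalized to DMSO and tomatine.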
In the case of `Cc1cccc(NC(=O)C2(C)Cc3ccccc3C(=O)O2)c1` (stereo unspecified), the “activity change, negative = inhibition” value is reported as inactive: -5.38%. In the case of `CCOc1ccccc1NC(=O)C1=C(C)Nc2ncnn2C1c1ccccn1` (stereo unspecified), the Potency is reported as inconclusive [inhibitor, single point]. For `CCc1ccc(NC(=O)N(Cc2cn(CC)c3ccccc23)C2CCCCC2)cc1`, the Potency was inconclusive [inhibitor, single point]. In the case of `COc1cc(OC)c(OC)cc1/C=C/c1nc2ccccc2c(=O)n1-c1ccc(Br)c(C)c1`, the Potency is reported as inconclusive [inhibitor, single point]. For `Cc1ccc(Cl)cc1N1CCN(C(=O)C2CCCN(Cc3nc(-c4cccc(Cl)c4)oc3C)C2)CC1` (stereo unspecified), the Potency was inconclusive [inhibitor, single point]. With `C=Cc1ccc(Cn2c(=O)n(CC3CCC(C(=O)NC(C)C)CC3)c(=O)c3sccc32)cc1` (stereo unspecified) the Potency was inconclusive [inhibitor, single point]. In the case of `COc1ccc(NC(=O)c2oc3ccc(S(=O)(=O)N4CCC5(CC4)OCCO5)cc3c2C)cc1Cl`, the Potency is reported as inconclusive [inhibitor, single point]. With `CCCN1CCN(CCCNC(=O)Cn2c(-c3cccs3)cc3cc(Cl)ccc32)CC1` the Potency was inconclusive [inhibitor, single point]. For `Cc1ccc2occ(CC(=O)N3CCN(c4cccc(Cl)c4)CC3)c2c1`, the Potency was inconclusive [inhibitor, full curve]. With `CCN1C(=O)c2ccccc2Sc2ccc(NC(=O)Nc3ccc(C(C)=O)cc3)cc21` the “activity change, negative = inhibition” value was inactive: 7.51%. With `CC1CCCCN1C(=O)CSc1nc2ccccc2nc1Cc1ccc(Cl)cc1` (stereo unspecified) the Potency was inconclusive [inhibitor, single point]. With `Cc1c(CCNS(=O)(=O)c2ccccc2)sc2nc(-c3ccc(Cl)cc3)nn12` the Potency was inconclusive [inhibitor, single point]. In the case of `COc1ccc(C(C(=O)NCc2ccccc2)N(C(=O)Cn2nnc3ccccc32)c2ccc(F)cc2)cc1` (stereo unspecified), the “activity change, negative = inhibition” value is reported as inactive: -7.56%. With `Cc1ccc(C(C)C)c(OCCSc2nc(-c3cccs3)nc3cc(=O)[nH]n23)c1` the Potency was inconclusive [inhibitor, single point]. With `COc1ccc(C)cc1NC(=O)C(CCSC)NS(=O)(=O)c1ccc2c(c1)oc(=O)n2C` (stereo unspecified) the Potency was inconclusive [inhibitor, single point]. In the case of `Cn1nnnc1SCCNCc1cc(Br)ccc1OCc1ccccc1Cl`, the “activity change, negative = inhibition” value is reported as inactive: -1.06%. In the case of `COc1ccc(Nc2c(-c3cccc(O)c3)nc3cnccn23)cc1`, the “activity change, negative = inhibition” value is reported as inactive: -8%. With `CCc1nc2nc(C)cc(Nc3cccc(C)c3C)n2n1` the Potency was inconclusive [inhibitor, partial curve, poor fit]. With `COc1cc(NC(=O)CSc2ccc(-c3ccccn3)nn2)cc(OC)c1` the “outcome” value was “inactive”. In the case of `CSc1nc2c(sc3ccccc32)c(=O)n1Cc1ccc(C)cc1`, the Potency is reported as inconclusive [inhibitor, partial curve]. In the case of `COc1ccc(C(=O)Nc2cc(-c3nc4ccccc4s3)ccc2OC)cc1`, the Potency is reported as inconclusive [inhibitor, full curve, poor fit]. With `O=C(c1ccc(Nc2nccc(-c3cc4ccccc4s3)n2)cc1)N1CCC(N2CCCC2)CC1` the Potency was inconclusive [inhibitor, single point]. In the case of `CCS(=O)(=O)c1oc(-c2ccc(F)cc2)nc1S(=O)(=O)c1ccccc1`, the “activity change, negative = inhibition” value is reported as inactive: -7.72%. With `CCN(C(=O)CSc1nc(-c2ccccc2)no1)c1ccccc1` the Potency was inconclusive [inhibitor, single point]. With `Cc1ccc(NC(=O)c2cc3ccccn3n2)cc1F` the “outcome” value was “inactive”. With `O=C(Nc1nc2ccc(F)cc2s1)c1nc(S(=O)(=O)Cc2ccccc2F)ncc1Cl` the Potency was inconclusive [inhibitor, single point]. In the case of `CCc1ccc(OCCn2c(C3CC(=O)N(Cc4ccc(F)cc4)C3)nc3ccccc32)cc1` (stereo unspecified), the Potency is reported as inconclusive [inhibitor, single point]. In the case of `Cc1ccccc1OCCn1c(CCNC(=O)C2CCCCC2)nc2ccccc21`, the Potency is reported as inconclusive [inhibitor, single point]. With `Cc1ccc(C(=O)N/C(=C\c2ccc(Cl)cc2)C(=O)NC2CCCCC2)cc1` the Potency was inconclusive [inhibitor, partial curve, poor fit]. For `COc1ccc(S(=O)(=O)Nc2cc(-c3c(O)ccc4ccccc34)c(O)c3ccccc23)cc1`, the Potency was inconclusive [inhibitor, partial curve, poor fit]. For `CCS(=O)(=O)c1ncc(Cl)c(C(=O)NCc2ccc(OC)cc2)n1`, the Potency was inconclusive [inhibitor, partial curve]. With `CC(=O)c1ccc(NC(=O)CSc2nc(=O)n(Cc3ccncc3)c3c2CCC3)cc1` the Potency was inconclusive [inhibitor, single point]. For `COc1ccc2c(c1)c1c(c(=O)n(CCc3ccccc3)c(=O)n1Cc1cccc(C)c1)n2C`, the Potency was inconclusive [inhibitor, single point]. In the case of `CS(=O)(=O)c1ncc(Cl)c(C(=O)N2CCN(c3cccc(Cl)c3)CC2)n1`, the Potency is reported as inconclusive [inhibitor, full curve, poor fit]. In the case of `CCCCCCCCCCCCCCCC(=O)OC[C@@H](NC(=O)C(Cl)Cl)[C@H](O)c1ccc([N+](=O)[O-])cc1`, the “activity change, negative = inhibition” value is reported as inactive: -3.3%. With `CCOc1ccc(Nc2nc(N)c(C(=O)c3ccccc3Cl)s2)cc1` the Potency was inconclusive [inhibitor, full curve, poor fit]. For `Oc1ccc2ccccc2c1SSc1c(O)ccc2ccccc12`, the Potency was active: 26.4 µM. For `CCc1ccc(NC(=O)Nc2cn(C)c(=O)c3ccccc23)cc1`, the Potency was inconclusive [inhibitor, single point]. With `COc1ccc(NC(=O)Cn2cnc3ccc(S(=O)(=O)N4CCC(C)CC4)cc3c2=O)c(OC)c1` the “activity change, negative = inhibition” value was inactive: 21.9%. In the case of `O=C(Nc1nc2c(Cl)cccc2s1)c1ccc(S(=O)(=O)N2CCc3ccccc32)cc1`, the Potency is reported as inconclusive [inhibitor, full curve]. With `COc1ccc(OC)c(-c2nnc3ccc(-c4ccc(OC)c(O[C@@H]5CCOC5)c4)nn23)c1` the Potency was inconclusive [inhibitor, single point]. With `O=C(Nc1ccc(Br)cc1)c1ccc(F)c(S(=O)(=O)NC2CCCCCC2)c1` the Potency was inconclusive [inhibitor, single point]. For `CCN(CC)c1cc(C)c2cc(NC(=O)c3cccc(OC)c3OC)ccc2n1`, the “activity change, negative = inhibition” value was inactive: 1.99%. For `Cc1nnc(N2CCCC(C(=O)NCc3ccccc3)C2)c2nn(-c3ccccc3)c(C)c12` (stereo unspecified), the “outcome” value was “inactive”. In the case of `CCc1c(C)sc2c1CCN(Cc1ccccc1)C2c1ccccc1` (stereo unspecified), the “activity change, negative = inhibition” value is reported as inactive: 11.1%. With `Cc1ccc(C2=CC(c3ccccc3C)n3c(nc4ccccc43)N2)cc1` (stereo unspecified) the “activity change, negative = inhibition” value was inactive: 7.93%. With `O=C(NCCc1ccc(Cl)cc1)c1nnc(Cc2ccc(F)cc2)o1` the Potency was inconclusive [inhibitor, single point]. With `COc1cc(OC)cc(C(=O)Nc2ccc3nc4c(c(Nc5ccc(OC)c(OC)c5)c3c2)CCCC4)c1` the Potency was inconclusive [inhibitor, single point]. In the case of `CCOc1ccccc1NC(=O)Nc1ccc2nc(N3CCN(C)CC3)cc(C)c2c1`, the Potency is reported as inconclusive [inhibitor, partial curve, poor fit]. With `COc1ccccc1NC(=O)C1=C(C)Nc2nc(SCc3ccccc3F)nn2C1c1ccncc1` (stereo unspecified) the “activity change, negative = inhibition” value was inactive: 2.76%. For `Cc1ccc(NC(=O)c2cc(S(=O)(=O)N3CCC(C)CC3)cn2C)cc1Cl`, the “outcome” value was “inactive”. For `O=C(NCCN1CCCCC1)c1ccc(Cn2c(SCc3ccccc3)nc3cccnc32)cc1`, the Potency was inconclusive [inhibitor, single point]. In the case of `Cc1ccc(NC(=O)C2CCN(c3nc(-c4ccc(C(C)C)cc4)no3)CC2)c(Cl)c1`, the “outcome” value is reported as “inactive”. For `COc1ccc(N2CCN(C(=O)C3CCN(S(=O)(=O)c4cn(C)cn4)CC3)CC2)cc1`, the Potency was inconclusive [inhibitor, single point]. For `Cc1cccc(N2CCN(c3ncnc4c3nc3n4CCCCC3)CC2C)c1` (stereo unspecified), the Potency was inconclusive [inhibitor, single point]. For `CCOC(=O)c1ccc(N2C(=O)c3n[nH]c(-c4cccs4)c3C2c2ccc(CC)cc2)cc1` (stereo unspecified), the Potency was inconclusive [inhibitor, single point]. In the case of `Cc1ccc(Cn2c(=O)n(CCCCC(=O)NCc3ccccc3Cl)c(=O)c3ccccc32)cc1`, the “activity change, negative = inhibition” value is reported as inactive: 35.4%. In the case of `CCOc1ccccc1Nc1sc(C(=O)c2ccccc2)c(N)c1S(=O)(=O)c1ccc(C)cc1`, the Potency is reported as inconclusive [inhibitor, full curve, poor fit]. With `COCCCNC(=O)c1ccc2c(c1)nc(C)n2-c1cccc(C)c1` the Potency was inconclusive [inhibitor, single point]. In the case of `O=C(NCc1ccccc1Cl)C1CCC(CNS(=O)(=O)c2ccc(Br)s2)CC1` (stereo unspecified), the “activity change, negative = inhibition” value is reported as inactive: 0.821%. For `CCN1CCC(N(Cc2ccc3c(c2)OCO3)C(=O)Nc2ccccc2OC)CC1`, the “activity change, negative = inhibition” value was inactive: 1.01%. In the case of `CN(C)c1ccc(NC(=O)CSC2=Nc3ccccc3C3=NC(CC(=O)NCc4ccccc4)C(=O)N23)cc1` (stereo unspecified), the Potency is reported as inconclusive [inhibitor, single point]. In the case of `COc1ccc2ccc(=O)oc2c1CC=C(C)C`, the “activity change, negative = inhibition” value is reported as inactive: 17.1%. With `CCN1CCN(c2cc(C)c3cc(NC(=O)/C=C/c4cccc(Cl)c4)ccc3n2)CC1` the Potency was inconclusive [inhibitor, single point]. With `Cc1ccc(S(=O)(=O)Nc2ccc3[nH]c(=O)sc3c2)cc1C` the “activity change, negative = inhibition” value was inactive: 3.49%. For `Cc1ccc(NC(=O)c2ccc(COc3ccccc3Cl)o2)cc1`, the “activity change, negative = inhibition” value was inactive: -0.984%.
